{"source": "paper PMC10468942", "about": "“A Fluorescent Probe as a Lead Compound for a Selective α-Synuclein PET Tracer: Development of a Library of 2-Styrylbenzothiazoles and Biological Evaluation of [^18F]PFSB and [^18F]MFSB” (ACS Omega, 2023)", "target": "T1, αSYN fibrils (Homo sapiens, UniProt P37840)", "T1 construct": "cloning of the DNA construct encoding full-length αSYN into the pET-22b vector; made in house; host or cells: Escherichia coli BL21", "assay": "[^3H]PiB competition binding assay on αSYN fibrils", "settings": "nonmethylated compounds, Table 1; two values in a cell = single determinations; a: mean Ki ± SEM of three data points; b: single data point", "description": "Following the cloning of the DNA construct encoding full-length αSYN into the pET-22b vector and its transformation into BL21 cells, the expression of human αSYN from a prokaryotic host was induced overnight in Escherichia coli at 20 °C with 0.5 mM IPTG. The cells were harvested by centrifugation, resuspended in 20 mM Tris-HCl pH 7.6, 25 mM NaCl and 1× complete protease inhibitor (Roche, Basel, Switzerland), and lysed by sonication. […] Anion exchange chromatography (HiTrap Q, GE Healthcare, Chicago, Illinois) was used to trap the produced αSYN, which was eluted with NaCl 0.1 M over 20 column volumes. Fractions containing αSYN were concentrated and further purified through a Superdex 75 SEC column equilibrated with PBS. […] A 4 mg/mL solution of αSYN in 20 mM K3PO4 pH 9.1 was placed in an orbital shaker at 37 °C, 1000 rpm for 5 days to prepare P91s. The assemblies were either sonicated with cycles of 20 s on and 10 s off at 50% amplitude (Q800R3, Qsonica) for a total of 10 min or directly aliquoted in volumes of 10 μL each stored at −80 °C until use. […]\nPlates were incubated on a shaker (MaxQ 6000, Thermo Fisher Scientific, Inc., Marietta, OH) at 50 rpm for 2 h at 37 °C, covered by removable sealing tapes (PerkinElmer, Waltham, MA). Vacuum filtration and read-out were performed as previously reported.[17] […]", "note": "A number of entries come with more than one value. This is not the full list of results. An entry can have further records. Values given together read as repeated measurements (runs, samples, wells or individuals).", "data": [{"molecule": "c1ccc2sc(-c3ccc(N4CCCCC4)cc3)nc2c1", "note": "[13a, 2-(4-(Piperidin-1-yl)phenyl)benzo[d]thiazole]", "values": [{"measurement": "Ki", "value": "134 nM and 12.1 nM [one cell]"}]}]}
